Assay results published in PubChem BioAssay AID1963576 (National Center for Advancing Translational Sciences (NCATS), 2024).
The campaign covered roughly 46,000 compounds. About 60 (0.1%) were called active. Another 3% or so got no clear call; they are omitted. Calls follow the shape of the dose curve; as a rule, active = well fitted inhibition curve with a large enough effect; inconclusive = small, poorly fitted or top-dose-only effect; inactive = no such curve, though single readings can be large or run the other way. The list shows a part of the results.

Assay: Primary qHTS assay for Inhibitors of ovarian cancer metastasis using an organotypic tumor microenvironment (TME) model. Also: nearly all actives have a fitted effect of over 65% in size.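 As to activity change, negative = inhibition: plate controls were DMSO wells for no effect and tomatine positive control wells for full effect.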
Conditions: SKOV3ip1-GFP adhesion/invasion on 3D omental model, fluorescence; series mostly up to 45.8 µM; activity change, negative = inhibition: at the top concentration
How it was run: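 qHTS, 4-pt dose (0.36-46 umol/L); SKOV3ip1-GFP, 1,200 cells/well, no FBS; primary omental fibroblast/mesothelial co-culture 48 h pre-grown; 2 h RT + 16 h 37 C; PBS wash, 4% PFA; GFP count 488/509 nm.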

Activity change, negative = inhibition, inactive:
Cc1nc(N2CCCC2)ncc1C(=O)NCc1cccc(Cl)c1 -6.9%
COC(=O)c1ccc(NC(=O)CCS(=O)(=O)c2ccc(Br)s2)cc1 5.78%
Cc1ccc(NC(=O)CCOc2ccccc2)cc1 3.78%
COc1ccccc1CNC(=O)c1ccc(CS(=O)(=O)c2c(Cl)cccc2Cl)o1 7.63%
COc1cccc(-c2nc(S(=O)(=O)c3ccccc3)c(N3CCCCC3)o2)c1 3.18%
Cc1ccccc1OCCCCn1c(-c2ccc(Cl)cc2)nc2ccccc2c1=O -18.7%
CCCn1c(=O)c2sccc2n2c(CCCC(=O)N3CCN(c4ccccc4OC)CC3)nnc12 -0.84%
CCOC(=O)c1ccc(N2C(=O)c3[nH]nc(-c4ccc(C)cc4)c3C2c2ccc(O)c(OCC)c2)cc1 (stereo not given) 0.306%
NC1CCC(Nc2nc(Nc3ccc(C(=O)N4CCCCC4)cc3)c3ncn(-c4cccc(F)c4)c3n2)CC1 (stereo not given) -3.57%
Cc1ccc2c(=O)cc(C(=O)Nc3sc4c(c3C(=O)NCc3ccco3)CCC4)oc2c1 -0.875%
COc1ccccc1NC(=O)CSc1nnc(-c2ccccc2C)o1 2.5%
CCOc1ccc(-c2nnc(SCC(=O)Nc3cccc(OC)c3)nc2-c2ccc(OCC)cc2)cc1 -2.7%
O=C(NCC(c1ccc(Cl)cc1)N1CCOCC1)c1ccccc1F (stereo not given) -9.65%
O=C1CCc2cc(OCCCCc3nnnn3C3CCCCC3)ccc2N1 -12.9%
COc1ccc(C(=O)NCC(c2ccc3c(c2)OCO3)N2CCN(c3ccccc3F)CC2)cc1 (stereo not given) -4.69%
O=C1CCCc2cc(S(=O)(=O)N3CCCC(C(=O)NCc4ccc(Cl)cc4)C3)ccc2N1 (stereo not given) -4.66%
COc1cc(OC)cc(-c2nc(-c3ccc4c(c3)[nH]c(=O)n4C)no2)c1 3.7%
Cc1ccc2ncc(C(=O)Nc3ccc(OC(F)(F)F)cc3)c(=O)n2c1 1.48%
O=c1[nH]c2ccc(NCc3ccc(-c4ccc(Br)cc4)o3)cc2[nH]1 -23.3%
COc1cccc(CNC(=O)C2CCN(S(=O)(=O)c3ccc4c(c3)CCCN4C(C)=O)CC2)c1 -24.6%
Cc1ccc2c(c1)N(CCCC(=O)Nc1cccc(C(F)(F)F)c1)C(=O)CO2 15.6%
CCOC(=O)c1[nH]c2ccccc2c1NC(=O)c1ccc(Br)cc1 -11.7%
Cc1ccc(-c2cc(C(=O)NCc3ccccc3Cl)c3ccccc3n2)cc1C 5.14%
COc1ccc2cc3c(N)nn(C(=O)c4ccc(OC)c(OC)c4)c3nc2c1 1.81%
O=C(Nc1ccccc1C(F)(F)F)n1ncc2cc(Cl)ccc21 4.96%
CCCCN1C(=O)C(O)(CC(=O)c2ccc(C(C)(C)C)cc2)c2ccccc21 (stereo not given) -12.4%
CCOc1ccc(-c2nc3c(c(SCC(=O)N4CCCCC4)n2)Cc2cccc(OC)c2O3)cc1 8.95%
Cc1ccc2nc3c(cc(C#N)c(=O)n3-c3nnc(SCc4ccccc4)s3)c(=O)n2c1 3.66%
COc1cc(NC(=O)Cn2cc(C(=O)c3ccc(F)cc3)c(=O)c3ccc(C)nc32)cc(OC)c1 -25.3%
CCOc1ccc(NC(=O)c2ncoc2-c2ccco2)cc1 -3.62%
O=C(Cn1c(=O)nc(-c2ccccc2)c2cc(Cl)ccc21)Nc1ccc(F)c(Cl)c1 -1.77%
CC(=O)c1sc(N2C(=O)c3oc4ccccc4c(=O)c3C2c2ccc(C)cc2)nc1C (stereo not given) -9.88%
CC(=O)c1ccc(NC(=O)Cn2nc(N3CCN(c4ccccc4)CC3)ccc2=O)cc1 -0.471%
COc1ccccc1OC(C)C(=O)Nc1cccc(-c2nc3ccccc3o2)c1 (stereo not given) -0.75%
CCCn1c2ccccc2c2nnc(SCC(=O)Nc3cccc(C(C)=O)c3)nc21 1.35%
Cc1ccc(NC(=O)c2cnn3c2NC(c2ccccc2)=CC3c2ccccc2)cc1 (stereo not given) -24.8%
CCC(Sc1nnc(C)n2c1cc1occc12)C(=O)Nc1ccccc1OC (stereo not given) -1.82%
Cc1coc2c1C(=O)C(=O)c1c-2ccc2c(C)cccc12 0.546%
CCc1ccc(NS(=O)(=O)c2ccc3[nH]cc(C(=O)NCCCOC(C)C)c(=O)c3c2)cc1 2.76%
CCCSc1nc2c([nH]c3ccccc32)c(=O)n1C -0.334%
CN1C(C(=O)Nc2ccc(OC(F)(F)F)cc2)=CC(c2cccs2)=NS1(=O)=O -25.7%
COc1cccc(NC(=O)Cn2c(=O)n(Cc3ccccc3)c(=O)c3ccccc32)c1 12.5%
CCOc1cc(CNC(=O)CN2CCSc3ccccc32)cc(OCC)c1OCC 36.1%
O=C(Nc1ccccc1Cl)c1sc2cccc(Cl)c2c1Cl 39.3%
COc1ccc(NC(=O)c2oc3ccccc3c2NC(=O)COc2ccc(C(C)C)cc2)c(OC)c1 -22.8%
CCOC(=O)c1c(NC(=O)c2ccc(OC)cc2)sc2c1CCCCC2 -2.92%
COc1ccc(-n2c(=O)[nH]c3cc(C(=O)NCCc4ccccc4)ccc3c2=O)cc1OC 7.79%
CCCS(=O)(=O)c1nc(S(=O)(=O)c2ccc(C)cc2)c(NC)s1 -2.4%
Cc1ccc(-n2ncc(C(=O)N3CCCCC3)c2C2CCN(C(=O)OC(C)(C)C)CC2)c(C)c1 0.841%
CN(C)c1ccc(CNC(=O)Cn2c(=O)oc3cc(S(=O)(=O)N4CCCCCC4)ccc32)cc1 -1.11%
Cc1ccc(NC(=O)Cc2coc3ccc(C(C)C)cc23)cc1Cl -21.1%
COc1ccc(-c2nc3c(c(SCC(=O)N4CCCCC4)n2)Cc2cc(Cl)ccc2O3)cc1 -12.5%
COC(=O)c1sccc1S(=O)(=O)N(CC(=O)NCc1ccc(C)cc1)c1ccc(C)cc1 4.29%
Fc1ccc(-c2nc(Nc3cccc(C(F)(F)F)c3)nc3c2COc2ccccc2-3)cc1 -7.46%
COc1cc(Nc2nc3ccccc3nc2NS(=O)(=O)c2ccc(NC(=O)c3ccc(C)c(OC)c3)cc2)cc(OC)c1 6.33%
Cc1ccccc1-n1c(Cn2nc(-c3cccc(O)c3)c3c(N)ncnc32)nc2cccc(C)c2c1=O 6.43%
COc1ccc(-n2c(SCC(=O)NCc3ccc(C)cc3)nc3n[nH]c(C)c3c2=N)cc1 8.37%
O=C(CCC1N=C2c3ccccc3N=C(SCc3ccc(Cl)cc3)N2C1=O)N1CCN(c2ccccc2)CC1 (stereo not given) 4.13%
COc1ccc(C2C=C(c3ccc(Cl)c(Cl)c3)Nc3ncnn32)cc1 (stereo not given) 4.23%
COc1cc(OC)c(NS(=O)(=O)c2ccc3oc(=O)c4ncn(C)c4c3c2)cc1Cl 1.66%
O=C(CSc1nnc(-c2ccc(F)cc2)o1)N1CCCc2ccccc21 -5.8%
Cc1ccc(CSc2nnc3[nH]c(=O)cc(-c4ccccc4)n23)cc1 -20.2%
CC(C)(C)c1ccc(OCc2nnc(-c3ccccc3)o2)cc1 1.76%
CCn1cc(C(=O)NCc2ccc(Cl)cc2)c(=O)c2cc(S(=O)(=O)N(C)C3CCCCC3)ccc21 1.45%
O=C(Cn1ncc2c3ccccc3n(Cc3ccc(F)cc3)c2c1=O)NCc1cccs1 13.3%
CC(CNC(=O)c1ccc2nc(Cc3ccccc3)oc2c1)c1ccccc1 (stereo not given) 4.31%

outcome, inactive:
Cc1cccc(OCCSc2nc3ccccc3n2CC(=O)N2CCOCC2)c1
COCCNC(=O)c1ccc2c(=O)n(CCc3ccccc3)c(SCC(=O)CC(=O)OC)nc2c1
CCC(C)NC(=O)CSc1nc2cc3c(cc2c(=O)n1CCCC(=O)NCCc1ccc(OC)c(OC)c1)OCO3 (stereo not given)
CCOC(=O)c1c(C)[nH]c(C)c1S(=O)(=O)N(C)CC(=O)Nc1cc(Cl)ccc1C
CC1=C(C(=O)OCc2ccc(C)cc2)C(c2ccccc2F)CC(=O)N1 (stereo not given)
COc1ccc2c(c1)c(=O)c(C(=O)c1ccccc1)cn2CC(=O)Nc1ccc2c(c1)OCCO2
COc1cc(NC(=O)CCc2c(C)nn(-c3ccc(N4CCOCC4)nn3)c2C)cc(OC)c1OC
O=C(NCc1ccccc1F)C1CCN(c2nnc(-n3cccc3)s2)CC1
O=C(COc1ccc([N+](=O)[O-])cc1)Nc1nc2c(s1)CCCC2
COc1cccc(C2CC(=O)Nc3c2c(=O)[nH]c2nc4ccccc4n32)c1 (stereo not given)
Cc1ccccc1-c1nnn(CC(=O)Nc2sc3c(c2C#N)CCC(C(C)(C)C)C3)n1 (stereo not given)
CCc1ccc(NC(=O)Cn2c(=O)n(CCCCC(=O)NCCc3ccc(Cl)cc3)c(=O)c3ccccc32)cc1
Cc1cccc(CSc2ncc(Cl)c(C(=O)Nc3nc4ccc(F)cc4s3)n2)c1
CCCn1c2ccccc2c2cnn(CC(=O)N3CCN(c4ccccc4)CC3)c(=O)c21
CC(C)NC(=O)c1ccc(NC(=O)N2CCCCc3ccccc32)cc1
CCN(Cc1ccccc1)C(=O)c1cnn(-c2ccc(F)cc2)c1-n1cccc1
Cc1ccc(Cl)cc1N1CCN(S(=O)(=O)c2ccc3c(c2)CCN3C(=O)C2CCC2)CC1
COc1ccccc1CNC(=O)CSC1=Nc2ccccc2N=C(c2ccc(F)cc2)C1
O=C(NCc1cccnc1)c1nn(-c2ccc(F)cc2)nc1CO
CCSc1nc2n(n1)C(c1ccc(C(=O)O)cc1)C(C(=O)Nc1ccccc1C)=C(C)N2 (stereo not given)
Cc1ccc(N(CC(=O)Nc2ccc(Cl)cc2)S(=O)(=O)c2cccc3nonc23)cc1
O=C(COc1ccccc1)Nc1ccc2nc(SCC(=O)N3CCOCC3)sc2c1
COc1ccc(N2CCN(CCCNC(=O)Nc3ccccc3)CC2)cc1
CCOC(=O)C1=C(CN2CCN(c3cccc(Cl)c3)CC2)NC(=O)NC1c1ccc(Cl)cc1 (stereo not given)
Fc1ccc(C2=CC(c3ccc(F)cc3)n3c(nc4ccccc43)N2)cc1 (stereo not given)
Cc1cc(-n2c(C)nc3ccccc3c2=O)ccc1NC(=O)C(F)(F)F
CCN(Cc1ccccc1)S(=O)(=O)c1ccc(-c2coc(C)n2)cc1
COc1ccc(-c2nc(CSCC(=O)N3CCN(c4ccc(F)cc4)CC3)c(C)o2)cc1
COc1ccc(S(=O)(=O)NCCSc2nnnn2-c2ccccc2)cc1
